The supplement of paper PMC8728848
Some of the results follow.

Legend:
Test in all cases: glycan array binding signal (z-score within array); higher = stronger binding
Conditions in all cases: glycan notation: IUPAC condensed, linker removed
Glc(a1-4)Glc = target: Glc(a1-4)Glc
How it was run: (§1)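 The binding signal is a Z-score computed within each array and averaged over linkers. Arrays of the same protein sequence at different concentrations or buffers were also averaged together. Data originate from 3228 arrays in the Consortium for Functional Glycomics database, kept only where the protein sequence was available.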

[1] = target: Glc(a1-4)Glc(a1-4)Glc(a1-4)Glc
How it was run: as §1

Glc(a1-6)Glc(a1-6)Glc = target: Glc(a1-6)Glc(a1-6)Glc
How it was run: as §1

[2] = target: Glc(a1-6)Glc(a1-6)Glc(a1-6)Glc
How it was run: as §1

Glc(b1-4)Glc = target: Glc(b1-4)Glc
How it was run: as §1

Glc(b1-6)Glc = target: Glc(b1-6)Glc
How it was run: as §1

GlcA(b1-3)Gal = target: GlcA(b1-3)Gal
How it was run: as §1

GlcA(b1-3)GlcNAc = target: GlcA(b1-3)GlcNAc
How it was run: as §1

GlcA(b1-6)Gal = target: GlcA(b1-6)Gal
How it was run: as §1

[3] = target: GlcNAc(a1-3)Gal(b1-4)GlcNAc
How it was run: as §1

[4] = target: GlcNAc(a1-4)Gal(b1-3)GlcNAc
How it was run: as §1

[5] = target: GlcNAc(a1-4)Gal(b1-4)GalNAc
How it was run: as §1

[6] = target: GlcNAc(a1-4)Gal(b1-4)GlcNAc
How it was run: as §1

[7] = target: GlcNAc(a1-4)Gal(b1-4)GlcNAc(b1-3)Gal(b1-4)Glc
How it was run: as §1

[8] = target: GlcNAc(a1-4)Gal(b1-4)GlcNAc(b1-3)Gal(b1-4)GlcNAc
How it was run: as §1

[9] = target: GlcNAc(a1-4)Gal(b1-4)GlcNAc(b1-3)Gal(b1-4)GlcNAc(b1-3)Gal(b1-4)GlcNAc
How it was run: as §1

[10] = target: GlcNAc(a1-4)Gal(b1-4)GlcNAc(b1-3)Gal(b1-4)[Fuc(a1-3)]GlcNAc(b1-3)Gal(b1-4)[Fuc(a1-3)]GlcNAc
How it was run: as §1

[11] = target: GlcNAc(a1-6)Gal(b1-4)GlcNAc
How it was run: as §1

[12] = target: GlcNAc(b1-2)Gal(b1-3)GalNAc
How it was run: as §1

[13] = target: GlcNAc(b1-2)Man(a1-3)[GlcNAc(b1-2)Man(a1-6)]Man(b1-4)GlcNAc(b1-4)GlcNAc
How it was run: as §1

[14] = target: GlcNAc(b1-2)Man(a1-3)[GlcNAc(b1-2)Man(a1-6)]Man(b1-4)GlcNAc(b1-4)[Fuc(a1-6)]GlcNAc
How it was run: as §1

[15] = target: GlcNAc(b1-2)Man(a1-3)[GlcNAc(b1-4)][GlcNAc(b1-2)Man(a1-6)]Man(b1-4)GlcNAc(b1-4)GlcNAc
How it was run: as §1

[16] = target: GlcNAc(b1-2)[GlcNAc(b1-4)]Man(a1-3)[GlcNAc(b1-2)Man(a1-6)]Man(b1-4)GlcNAc(b1-4)GlcNAc
How it was run: as §1

[17] = target: GlcNAc(b1-2)[GlcNAc(b1-4)]Man(a1-3)[GlcNAc(b1-4)][GlcNAc(b1-2)Man(a1-6)]Man(b1-4)GlcNAc(b1-4)GlcNAc
How it was run: as §1

[18] = target: GlcNAc(b1-2)[GlcNAc(b1-4)]Man(a1-3)[GlcNAc(b1-4)][GlcNAc(b1-2)[GlcNAc(b1-6)]Man(a1-6)]Man(b1-4)GlcNAc(b1-4)GlcNAc
How it was run: as §1

[19] = target: GlcNAc(b1-2)[GlcNAc(b1-4)]Man(a1-3)[GlcNAc(b1-4)][GlcNAc(b1-2)[GlcNAc(b1-6)]Man(a1-6)]Man(b1-4)GlcNAc(b1-4)[Fuc(a1-6)]GlcNAc
How it was run: as §1

[20] = target: GlcNAc(b1-2)[GlcNAc(b1-6)]Man(a1-6)[GlcNAc(b1-2)Man(a1-3)]Man(b1-4)GlcNAc(b1-4)GlcNAc
How it was run: as §1

[21] = target: GlcNAc(b1-2)[GlcNAc(b1-6)]Man(a1-6)[GlcNAc(b1-2)Man(a1-3)]Man(b1-4)GlcNAc(b1-4)[Fuc(a1-6)]GlcNAc
How it was run: as §1

[22] = target: GlcNAc(b1-2)[GlcNAc(b1-6)]Man(a1-6)[GlcNAc(b1-2)Man(a1-3)][GlcNAc(b1-4)]Man(b1-4)GlcNAc(b1-4)GlcNAc
How it was run: as §1

GlcNAc(b1-3)Gal = target: GlcNAc(b1-3)Gal
How it was run: as §1

[23] = target: GlcNAc(b1-3)Gal(b1-3)GalNAc
How it was run: as §1

GlcNAc(b1-3)Gal(b1-4)Glc = target: GlcNAc(b1-3)Gal(b1-4)Glc
How it was run: as §1

[24] = target: GlcNAc(b1-3)Gal(b1-4)GlcNAc
How it was run: as §1

[25] = target: GlcNAc(b1-3)Gal(b1-4)GlcNAc(b1-3)Gal(b1-4)GlcNAc
How it was run: as §1

GlcNAc(b1-3)GalNAc = target: GlcNAc(b1-3)GalNAc
How it was run: as §1

GlcNAc(b1-3)Man = target: GlcNAc(b1-3)Man
How it was run: as §1

[26] = target: GlcNAc(b1-3)[GlcNAc(b1-4)][GlcNAc(b1-6)]GlcNAc
How it was run: as §1

B1: ArathEULS3 (Arabidopsis thaliana), Q945P1 (protein)
chain: MEHHHQHHRHHQRDDGEDDRQSFGVPPPHVDAPPQPHGLYQSQPHFDPYAPTPQAPAPYRSETQFEPHAPPPYRSEPYFETPAPPPSFGHVSHVGHQSPNESYPPEHHRYGGYQQPSNSLLESHGDHSGVTHVAHHSSNQPQSSSGVYHKPDENRLPDNLAGLAGRATVKVYSKAEPNYNLTIRDGKVILAPADPSDEAQHWYKDEKYSTKVKDADGHPCFALVNKATGEAMKHSVGATHPVHLIRYVPDKLDESVLWTESKDFGDGYRTIRMVNNTRLNVDAYHGDSKSGGVRDGTTIVLWDWNKGDNQLWKIFPFILEQKLISEEDLNSAVDHHHHHH
glycan array binding signal (z-score) (Glc(a1-4)Glc): -0.272
glycan array binding signal (z-score) [1]: 0.568
glycan array binding signal (z-score) (Glc(a1-6)Glc(a1-6)Glc): -0.327
glycan array binding signal (z-score) [2]: -0.076
glycan array binding signal (z-score) (Glc(b1-4)Glc): -0.138
glycan array binding signal (z-score) (Glc(b1-6)Glc): -0.278
glycan array binding signal (z-score) (GlcA(b1-3)Gal): -0.214
glycan array binding signal (z-score) (GlcA(b1-3)GlcNAc): -0.102
glycan array binding signal (z-score) (GlcA(b1-6)Gal): -0.028
glycan array binding signal (z-score) [3]: -0.273
glycan array binding signal (z-score) [4]: 0.245
glycan array binding signal (z-score) [5]: -0.031
glycan array binding signal (z-score) [6]: 0.01
glycan array binding signal (z-score) [7]: -0.112
glycan array binding signal (z-score) [8]: -0.22
glycan array binding signal (z-score) [9]: -0.273
glycan array binding signal (z-score) [10]: 3.11
glycan array binding signal (z-score) [11]: 0.19
glycan array binding signal (z-score) [12]: -0.276
glycan array binding signal (z-score) [13]: 0.204
glycan array binding signal (z-score) [14]: -0.201
glycan array binding signal (z-score) [15]: -0.393
glycan array binding signal (z-score) [16]: -0.03
glycan array binding signal (z-score) [17]: -0.378
glycan array binding signal (z-score) [18]: -0.121
glycan array binding signal (z-score) [19]: -0.219
glycan array binding signal (z-score) [20]: -0.267
glycan array binding signal (z-score) [21]: -0.213
glycan array binding signal (z-score) [22]: -0.201
glycan array binding signal (z-score) (GlcNAc(b1-3)Gal): 1.53
glycan array binding signal (z-score) [23]: -0.13
glycan array binding signal (z-score) (GlcNAc(b1-3)Gal(b1-4)Glc): 0.165
glycan array binding signal (z-score) [24]: -0.056
glycan array binding signal (z-score) [25]: -0.25
glycan array binding signal (z-score) (GlcNAc(b1-3)GalNAc): 1.02
glycan array binding signal (z-score) (GlcNAc(b1-3)Man): -0.164
glycan array binding signal (z-score) [26]: -0.229
